This is one part of the list. Most values come without repeats; read them as rough.
Columns and labels:
Assay in all cases: cell count relative to DMSO control; melanoma cells; higher = more viable cells
Conditions in all cases: library dose: standard library concentration; 72 h
G361 = tested on: G361
IPC-298 = tested on: IPC-298
IST-MEL1 = tested on: IST-MEL1
LB2518-MEL = tested on: LB2518-MEL
LOXIMVI = tested on: LOXIMVI
MEL-HO = tested on: MEL-HO
MZ2-MEL = tested on: MZ2-MEL
MeWo = tested on: MeWo
RPMI7951 = tested on: RPMI7951
RVH-421 = tested on: RVH-421
SkMel28 = tested on: SkMel28
SkMel2 = tested on: SkMel2
SkMel30 = tested on: SkMel30
SkMel5 = tested on: SkMel5
UACC257 = tested on: UACC257
UACC62 = tested on: UACC62
WM115 = tested on: WM115
WM1716 = tested on: WM1716
WM1745 = tested on: WM1745
WM3526 = tested on: WM3526
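Further: cells treated in 1,536-well plates, then fixed and DAPI-stained, with nuclei counted from automated high-throughput microscope images.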

Structure (SMILES)	cell count (G361) [%]	cell count (IPC-298) [%]	cell count (IST-MEL1) [%]	cell count (LB2518-MEL) [%]	cell count (LOXIMVI) [%]	cell count (MEL-HO) [%]	cell count (MZ2-MEL) [%]	cell count (MeWo) [%]	cell count (RPMI7951) [%]	cell count (RVH-421) [%]	cell count (SkMel28) [%]	cell count (SkMel2) [%]	cell count (SkMel30) [%]	cell count (SkMel5) [%]	cell count (UACC257) [%]	cell count (UACC62) [%]	cell count (WM115) [%]	cell count (WM1716) [%]	cell count (WM1745) [%]	cell count (WM3526) [%]
CC[C@]1(O)C[C@H]2CN(CCc3c([nH]c4ccccc34)[C@@](C(=O)OC)(c3cc4c(cc3OC)N(C=O)[C@H]3[C@@](O)(C(=O)OC)[C@H](OC(C)=O)[C@]5(CC)C=CCN6CC[C@]43[C@@H]65)C2)C1 [vincristine] + Cn1cnc2c(F)c(Nc3ccc(Br)cc3Cl)c(C(=O)NOCCO)cc21 [selumetinib] (first compound 0.0005 µM, partner dose 0.075 µM)	81.5	53.5	81.4	51	102	95.9	55.4	77.2	102	78.1	53.9	47.5	64.8	90.2	104	54.5	77.8	60.3	82.1	62.1
Cc1cc(Nc2cc(N3CCN(C)CC3)nc(Sc3ccc(NC(=O)C4CC4)cc3)n2)n[nH]1 [Tozasertib] + CCCCCCCCCCCCCCCCCCOP(=O)([O-])OC1CC[N+](C)(C)CC1 [Perifosine] (first compound 0.03 µM, partner dose 2 µM)	79.7	90.6	79.4	69.8	78.3	95.8	72.8	96	16	78.6	62.9	77.3	93	63	85.4	67.2	66.6	95.1	73.7	83.4
CC[C@]1(O)C[C@H]2CN(CCc3c([nH]c4ccccc34)[C@@](C(=O)OC)(c3cc4c(cc3OC)N(C=O)[C@H]3[C@@](O)(C(=O)OC)[C@H](OC(C)=O)[C@]5(CC)C=CCN6CC[C@]43[C@@H]65)C2)C1 [vincristine] + O=C(Nc1cccc(Cl)c1)Nc1ncc(CCNc2ncnc3ccsc23)s1 [SNS314] (first compound 0.0005 µM, partner dose 0.004 µM)	56.8	81.9	35.8	53.9	64.1	74.7	69.5	27.4	34.2	64.1	29.2	53.2	61.1	32.4	58.5	66.1	30.2	28.6	68	27.3
CC[C@]1(O)C[C@H]2CN(CCc3c([nH]c4ccccc34)[C@@](C(=O)OC)(c3cc4c(cc3OC)N(C=O)[C@H]3[C@@](O)(C(=O)OC)[C@H](OC(C)=O)[C@]5(CC)C=CCN6CC[C@]43[C@@H]65)C2)C1 [vincristine] + O=c1[nH]nc(Sc2ncc([N+](=O)[O-])s2)n1-c1ccc2c(c1)OCCO2 [BI78D3] (first compound 0.0005 µM, partner dose 1 µM)	88.6	71	88.1	72.1	89.4	87.2	66.7	70.8	43.7	72.5	46.4	66.1	46.1	50	76.5	55.8	56.5	38.9	71	51.6
N#CC[C@H](C1CCCC1)n1cc(-c2ncnc3[nH]ccc23)cn1 [ruxolitinib] + Cc1nc(Nc2ncc(C(=O)Nc3c(C)cccc3Cl)s2)cc(N2CCN(CCO)CC2)n1 [dasatanib] (first compound 5 µM, partner dose 0.02 µM)	77.4	79.1	87.8	97.4	25	71.9	53.9	87.8	29.2	69.1	70	108	105	60.6	71.6	82.4	71.5	43.5	24.7	82.1
CC[C@]1(O)C[C@H]2CN(CCc3c([nH]c4ccccc34)[C@@](C(=O)OC)(c3cc4c(cc3OC)N(C=O)[C@H]3[C@@](O)(C(=O)OC)[C@H](OC(C)=O)[C@]5(CC)C=CCN6CC[C@]43[C@@H]65)C2)C1 [vincristine] + CN(c1ncccc1CNc1nc(Nc2ccc3c(c2)CC(=O)N3)ncc1C(F)(F)F)S(C)(=O)=O [PF562271] (first compound 0.0005 µM, partner dose 0.4 µM)	101	94.7	86.9	71.4	80.6	95	82.7	98.8	48.1	60	45.1	79.5	58.6	56.6	85.9	55.5	60.3	47.8	64.8	51.2
N#CC[C@H](C1CCCC1)n1cc(-c2ncnc3[nH]ccc23)cn1 [ruxolitinib] + C#Cc1cccc(Nc2ncnc3cc(OCCOC)c(OCCOC)cc23)c1 [erlotinib] (first compound 5 µM, partner dose 4 µM)	69.4	71.7	90.8	68	83.3	70.4	74.4	64.2	63.9	79.3	64.3	80.4	61.3	54	103	71.7	85.9	70.7	37.6	75.9
N#CC[C@H](C1CCCC1)n1cc(-c2ncnc3[nH]ccc23)cn1 [ruxolitinib] + C[C@]1(c2nc3c(C(N)=O)cccc3[nH]2)CCCN1 [Veliparib] (first compound 5 µM, partner dose 7 µM)	75.7	70.9	81.7	90.9	92.7	70.6	71.7	75.1	86.8	100	83.4	92	101	57.2	83.7	70.8	66.3	62.4	65.5	102
Cc1cc(Nc2cc(N3CCN(C)CC3)nc(Sc3ccc(NC(=O)C4CC4)cc3)n2)n[nH]1 [Tozasertib] + O=C(O)[C@@H]1[O][Sb](=[O])([O][Sb]2(=[O])[O][C@H]([C@H](O)CO)[C@H](O)[C@H](C(=O)O)[O]2)[O][C@H]([C@H](O)CO)[C@@H]1O [stibogluconate] (first compound 0.03 µM, partner dose 10 µM)	81.8	94.9	90.9	84.4	60	101	56.4	78.9	80	119	63.3	84	88.4	98.7	95.6	78.6	52.2	72.1	69.2	85.6
Cc1cc(Nc2cc(N3CCN(C)CC3)nc(Sc3ccc(NC(=O)C4CC4)cc3)n2)n[nH]1 [Tozasertib] + NC(=O)Nc1cc(-c2cccc(F)c2)sc1C(=O)N[C@H]1CCCNC1 [AZD7762] (first compound 0.03 µM, partner dose 0.1 µM)	76.1	95.3	85.7	51.7	62.3	81.6	72.2	81.7	30	136	24.9	72.7	74.5	76.5	109	55.6	39.2	58.3	41.6	49.3
N#CC[C@H](C1CCCC1)n1cc(-c2ncnc3[nH]ccc23)cn1 [ruxolitinib] + Cc1ccc(NC(=O)c2cccc(N(C)C)c2)cc1NC(=O)c1ccc(O)cc1 [ZM336372] (first compound 5 µM, partner dose 10 µM)	66.4	88.1	75.2	113	98.2	84.6	84.5	84.9	87.6	84.7	96.7	109	106	81.8	85.1	115	154	108	82.1	94.6
Cc1cc(Nc2cc(N3CCN(C)CC3)nc(Sc3ccc(NC(=O)C4CC4)cc3)n2)n[nH]1 [Tozasertib] + NC(=O)c1ccc(N(C(N)=O)c2c(F)cccc2F)nc1-c1ccc(F)cc1F [VX702] (first compound 0.03 µM, partner dose 2 µM)	77	75.2	94.5	86.5	150	82.1	65.6	79.4	78.8	61.8	55.6	118	92.2	69.3	85.8	73.8	59.3	84.1	64.8	86.2
N#CC[C@H](C1CCCC1)n1cc(-c2ncnc3[nH]ccc23)cn1 [ruxolitinib] + C=CCNC1=C2C[C@@H](C)C[C@H](OC)[C@H](O)[C@@H](C)/C=C(\C)[C@H](OC(N)=O)[C@@H](OC)/C=C\C=C(/C)C(=O)NC(=CC1=O)C2=O [Tanespimycin] (first compound 5 µM, partner dose 0.01 µM)	48.7	92.3	52.8	94.5	130	76.1	109	74.1	14.7	80.5	82.3	92.5	83.1	46.6	86.1	59.2	32.1	73	34.4	69.3
CC[C@]1(O)C[C@H]2CN(CCc3c([nH]c4ccccc34)[C@@](C(=O)OC)(c3cc4c(cc3OC)N(C=O)[C@H]3[C@@](O)(C(=O)OC)[C@H](OC(C)=O)[C@]5(CC)C=CCN6CC[C@]43[C@@H]65)C2)C1 [vincristine] + NC(=O)c1ccc(N(C(N)=O)c2c(F)cccc2F)nc1-c1ccc(F)cc1F [VX702] (first compound 0.0005 µM, partner dose 2 µM)	85.7	98.9	110	103	88	125	99.9	84.2	71.6	90.6	75.1	121	74.4	83.8	109	84.3	101	67.9	86	92.4
CC[C@]1(O)C[C@H]2CN(CCc3c([nH]c4ccccc34)[C@@](C(=O)OC)(c3cc4c(cc3OC)N(C=O)[C@H]3[C@@](O)(C(=O)OC)[C@H](OC(C)=O)[C@]5(CC)C=CCN6CC[C@]43[C@@H]65)C2)C1 [vincristine] + NC(=O)Nc1cc(-c2cccc(F)c2)sc1C(=O)N[C@H]1CCCNC1 [AZD7762] (first compound 0.0005 µM, partner dose 0.1 µM)	82.7	93.6	43.9	56.6	50.3	80.5	76.3	48.3	30.6	78.5	41.7	74.9	60.3	45.6	76.4	57.1	29.4	37.2	53.8	32.3

Source: the supplement of paper PMC4604168 (melanoma cell lines)
